Earlier results, collected in patent publication US20040254094A1, “Suppression of cyclin kinase activity for prevention and treatment of infections” (priority 2000, published 2004).

Test system: human lung fibroblasts
Details: 100 μg/ml (0.75 mM); cited from earlier work

O=C(O)CP(=O)(O)O [PAA, phosphonoacetic acid]
cellular DNA synthesis or population doubling times of uninfected cultures: little or no effect
